Assay results: PMC4336329 (PLoS ONE, 2015)
Among all 310,000 compounds or so, about 14,000 (4.5%) showed an effect of 50% or more. The effect is printed as a negative number. This is one part of the list.

Target: human ether-à-go-go-related gene (hERG) potassium channel (human, UniProt Q12809)
Assay: primary screen, population patch clamp on CHO cells stably expressing hERG
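Note: peak tail current of the secondary pulse compared with the same well before compound.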

Chain of human ether-à-go-go-related gene (hERG) potassium channel (Q12809 whole entry, looked up): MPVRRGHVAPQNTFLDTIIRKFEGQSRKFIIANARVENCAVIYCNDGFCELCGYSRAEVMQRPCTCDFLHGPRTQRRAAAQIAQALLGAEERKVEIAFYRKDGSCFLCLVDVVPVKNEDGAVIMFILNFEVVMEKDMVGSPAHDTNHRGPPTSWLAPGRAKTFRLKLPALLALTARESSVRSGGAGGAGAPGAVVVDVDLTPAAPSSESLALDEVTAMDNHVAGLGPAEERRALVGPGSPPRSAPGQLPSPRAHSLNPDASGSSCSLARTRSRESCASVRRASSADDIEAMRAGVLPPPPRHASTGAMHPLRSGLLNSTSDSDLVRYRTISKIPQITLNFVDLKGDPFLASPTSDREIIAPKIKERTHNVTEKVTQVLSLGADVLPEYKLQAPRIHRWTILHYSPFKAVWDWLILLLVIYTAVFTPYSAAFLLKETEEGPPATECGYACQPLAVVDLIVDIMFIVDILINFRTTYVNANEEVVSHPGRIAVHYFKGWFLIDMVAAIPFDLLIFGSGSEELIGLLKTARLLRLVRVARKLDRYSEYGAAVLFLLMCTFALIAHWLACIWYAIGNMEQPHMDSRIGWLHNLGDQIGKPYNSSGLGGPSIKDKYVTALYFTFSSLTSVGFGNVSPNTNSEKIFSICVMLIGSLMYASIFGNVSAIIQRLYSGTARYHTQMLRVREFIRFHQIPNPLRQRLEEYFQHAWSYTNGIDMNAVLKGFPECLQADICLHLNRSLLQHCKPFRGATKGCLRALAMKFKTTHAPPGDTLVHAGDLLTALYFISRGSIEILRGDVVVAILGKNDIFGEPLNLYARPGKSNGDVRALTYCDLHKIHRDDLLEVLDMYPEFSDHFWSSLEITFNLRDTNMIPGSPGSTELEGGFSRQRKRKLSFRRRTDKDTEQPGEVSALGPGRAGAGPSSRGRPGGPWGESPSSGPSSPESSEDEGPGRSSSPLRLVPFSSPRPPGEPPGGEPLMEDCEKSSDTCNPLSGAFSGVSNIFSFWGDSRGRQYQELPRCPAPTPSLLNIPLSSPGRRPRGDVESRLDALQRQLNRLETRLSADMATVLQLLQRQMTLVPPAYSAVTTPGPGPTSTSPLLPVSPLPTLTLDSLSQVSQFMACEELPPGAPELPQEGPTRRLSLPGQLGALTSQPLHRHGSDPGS

Structure (SMILES) | hERG current change (%, negative = inhibition) at 10uM [%]
CCCC/C(C)=N/NC(=O)Nc1ccccc1 | -16.7
CCOc1ccc(N(C)S(=O)(=O)c2cc(-c3cc(C)no3)ccc2OC)cc1 | -3.09
Nc1ccccc1C(=O)NNc1ncc(C(F)(F)F)cc1Cl | -10.8
CCOc1cccc(/C=C(/C#N)c2nc3ccccc3[nH]2)c1OCC(=O)O | 14.1
COc1ccc(S(=O)(=O)NN=C2CCCCC2)cc1 | -3.91
COc1cc(/C=N\NC(=O)CNC(=O)C2COc3ccccc3O2)ccc1O (stereo not drawn) | -26.8
CCCCCOc1ccc(C(O)C(CN2CCOCC2)c2ccccc2)cc1.Cl (stereo not drawn) | 9.77
COc1cc(C)nc(N2CCC(C(N)=O)CC2)n1 | -9.99
O=C(NCc1ccccn1)/C(=N/O)c1ccccc1 | 12.7
COc1cc(N2CCOCC2)ccc1/C=C1\C(=O)NC(=O)N(Cc2cccs2)C1=O | 11.4
O=C(Nc1ccc2c(c1)CCC2)c1cccc(OC(F)F)c1 | -40.1
O=C(NC(=S)Nc1ccc(O)cc1)c1ccccc1Cl | 13.9
Cc1ccc(NC(=O)NC(=O)CSc2nnc(-c3ccc(Cl)cc3Cl)n2N)c(C)c1 | -6.38
O=C1C2C(C(=O)N1c1nccs1)C1C=CC2C12CC2 (stereo not drawn) | -8.95
COc1ccc(/C=c2\s/c(=C/C(=O)c3ccc(C)cc3)[nH]c2=O)c(OC)c1 | 17.2
Fc1cccc(Cl)c1COc1ccc(-c2nnco2)cc1 | 11.8
CCC(C)(C(=O)NC1CCCCC1)N(Cc1cccs1)C(=O)Cc1cccs1 (stereo not drawn) | -2.91
CCn1c(SCC(=O)OC2CCCCC2)nnc1-c1ccncc1 | -13.6
COc1cccc(NC(=O)CN(C)C(=O)CSc2nc3ccccc3s2)c1 | -30.3
CC1CN(C(=O)CSc2nnc(-c3ccc(Cl)cc3)n2C)CC(C)O1 (stereo not drawn) | -8.54
Cc1c(-n2cc(C(=O)c3ccccc3O)cc(C#N)c2=O)c(=O)n(-c2ccccc2)n1C.Cl | -14.8
CCCCn1c(N)c(N(CCOC)C(=O)CCS(=O)(=O)c2ccc(Cl)cc2)c(=O)[nH]c1=O | 23.2

Structure (SMILES) | hERG current change (%, negative = inhibition) at 10uM [%]
Cc1ccc(S(=O)(=O)Nc2ccccc2C(=O)NCc2cccnc2)cc1 | 4.79
O=[N+]([O-])c1cc(C(F)(F)F)c(Cl)cc1N1CCN(CCO)CC1 | -39.2
O=P(CN1CCN(c2ccccc2)CC1)(N1CCCCC1)N1CCCCC1 | -16.3
COc1ccc(NC(=O)COC(=O)Cc2c(F)cccc2Cl)cc1OC | -0.828
Cc1cc(C(=O)CSc2nnc(Cc3ccccc3)o2)c(C)n1Cc1ccc2c(c1)OCO2 | 1.62
CCOc1ccccc1N(CC)C(=O)c1nn(C)c2c1CSc1ccccc1-2 | 4.53
CCn1c(/C=C2\C(=O)Nc3ccccc32)nc2ccccc2c1=O | -18.3
CCCCOCCCNC(=O)Cc1cccs1 | 1.1
CCCCNC(=S)NCc1ccc2[nH]c(C)cc2c1 | -17.2
OCCN1CCN(c2ncnc3c2c(-c2ccccc2)cn3-c2ccc(Br)cc2)CC1 | -15.2
CC(=O)N1CC2(C)CN(C(C)=O)CC(C)(C1)C2O (stereo not drawn) | 4.9
O=C(NCCCN1CCOCC1)C1CC(=O)N(CCc2ccccc2)C1 (stereo not drawn) | 9.08
CCCCn1c(-c2cccnc2)nc2cc3[nH]c(=O)c(C(C)C)nc3cc21 | -50.4
Cc1ccc(C)c(NC(=S)NNC(=O)c2csc3c2CCCC3)c1 | -7.78
CCOC(=O)C1=CC[C@H]2c3c(c4ccccc4n3C)C[C@H]1N2C | 3.88
Nc1c(C(=O)c2ccc(Cl)cc2)sc2nc3c(cc12)CCC3 | 12
COc1ccc(C2Nc3ccccc3C(=O)N2NS(=O)(=O)c2ccccc2)cc1OC (stereo not drawn) | 13.5
CN(C(=O)c1cccs1)c1ccc(OCC(=O)Nc2ccc(C(=O)O)cc2)cc1 | 8.12
CCNS(=O)(=O)c1ccc(NC(=O)Nc2cc(C)ccc2OC)cc1 | -8.52
O=C(Nc1cccc([N+](=O)[O-])c1)NC1CCCCCCC1 | 6.91
O=C(O)C(=O)O.OCCNCCCOc1ccc(Cl)cc1Br | -54.9
O=C(CSc1n[nH]c(=O)[nH]c1=O)c1cccc([N+](=O)[O-])c1 | 20.2

Structure (SMILES) | hERG current change (%, negative = inhibition) at 10uM [%]
NCCCC[C@@H]1NC(=O)[C@H](CCC(=O)O)NC(=O)c2cc([N+](=O)[O-])cc(I)c2NCC[C@@H](C(N)=O)NC1=O | 23
CC(=O)Nc1ccc(OC(=O)CC2SC(=O)NC2=O)cc1 (stereo not drawn) | -5.43
COc1ccc(NC(=O)CSc2nnc(C)n2C2CC2)cc1S(=O)(=O)N1CCOCC1 | 20.8
COC(=O)c1cccc(NC(=O)/C(=C\c2ccccc2)NC(=O)c2ccccc2Cl)c1 | 6.44
Cc1ccc(CN(C(=O)c2csnn2)C(C(=O)NC2CCCC2)c2ccccn2)cc1 (stereo not drawn) | -4.3
C/C(CC(=O)Nc1cccc(Cl)c1Cl)=N\NC(=O)c1ccccc1Br | -3.56
CC(C)(C)c1ccc(-c2nc3[nH]c(=O)cc(NC(=O)c4ccco4)n3n2)cc1 | 21
CCCSCCCNC(=O)Cn1cc2c(n1)CCC(C)C2 (stereo not drawn) | -12.8
CCN1CCN(c2nc3c(C)cccn3c(=O)c2/C=C(\C#N)C(=O)NC)CC1 | 8.87
COCC(C)n1c(C)cc(C(=O)COc2ccc(S(=O)(=O)N3CCOCC3)cc2Cl)c1C (stereo not drawn) | -11.9
COc1ccc(-c2c(NC(=O)c3ccco3)oc3ccc(Cl)cc3c2=O)cc1 | 19.7
Cc1ccc2c(Cl)c(C(=O)NCC3CCCO3)sc2c1 (stereo not drawn) | -12.8
COc1ccc(/C=N/n2cnnc2SCc2ccccc2)cc1 | -2.99
O=C(NCCc1cccc(Cl)c1)c1cc([N+](=O)[O-])ccc1Cl | -51
Cc1ccc(N2CCN(C3=NC(=O)/C(=C\c4cn[nH]c4-c4ccccc4)S3)CC2)cc1 | 2.07
CCOC(=O)/C=C1\NC2(CCCCC2)Cc2cc(OC)c(OC)cc21 | 0.854
COCCN1C(=O)N[C@@H](c2cccc(F)c2)C(C(=O)OC)=C1C | -30.9
O=C(O)c1sccc1Oc1ccc(NS(=O)(=O)c2ccccc2)cc1 | 19.6
CCCCn1c(N)c(N(CC(C)C)C(=O)c2ccc(N3C(=O)c4ccccc4C3=O)cc2)c(=O)[nH]c1=O | -0.0389
CC(C)c1csc(CN2CCC(N3CCC(C(=O)NCC4CCCO4)CC3)CC2)n1 (stereo not drawn) | -20.5
CCOC(=O)c1ccc(N2C=C(C(=O)OC)C(c3ccc(OC)c(O)c3)C(C(=O)OC)=C2)cc1 | 16.9
CC(C)[C@H](NC(=O)c1ccccc1Cl)C(=O)OCc1cc([N+](=O)[O-])cc2c1OCOC2 | -23.8

Structure (SMILES) | hERG current change (%, negative = inhibition) at 10uM [%]
O=C1CCCN1CCCNC(=S)Nc1ccc(F)cc1 | 8.5
Cc1ccc(-n2c(C)nc3ccccc3c2=O)c(C)c1 | 4.03
C=CCn1c(SCC(=O)c2cc(C)n(CC3CCCO3)c2C)nnc1-c1ccccc1 (stereo not drawn) | -13.8
Cc1ccc(-c2csc3nc[nH]c(=O)c23)cc1 | 6.88
CCC(=O)Nc1ccc(C(=O)OCC(=O)c2cccs2)cc1 | 9.97
C/C(=N\NC(=O)c1ccc(Cl)cc1)c1ccc2[nH]ccc2c1 | 17.4
CN(C(=O)COC(=O)C1=COCCO1)C1(C#N)CCCCC1 | 5.87
Cc1c(C(=O)N2CCOCC2)oc2ccc(S(=O)(=O)N3CCCC3)cc12 | -10.6
CC(Sc1nnc(-c2ccc(Cl)cc2)n1N)C(=O)NCC1CCCO1 (stereo not drawn) | 9.08
CCOC(=O)c1ccc(NC(=O)CCNC(=O)c2ccc([N+](=O)[O-])cc2)cc1 | -46.9
COCCNC(=O)c1cc(-c2ccc(Cl)c(Cl)c2)on1 | 2.9
COCCOC(=O)c1c(C)n(C)c2ccc(OC(=O)C3CC3)cc12 | -1.05
O=C(c1cc([N+](=O)[O-])[nH]n1)N1CCSCC1 | 12.5
COc1ccc(N/N=C/c2c(O)n(-c3ccc(C)c(C)c3)c(=O)[nH]c2=O)cc1 | 9.95
C=C1CCN([C@H](C(=O)NCc2ccco2)C(C)C)S(=O)(=O)c2ccccc21 | -7.84
Cc1ccc2c(c1)N(C(=O)CCC(=O)NCc1cccnc1)CCO2 | -11.5
O=C(CSc1nnc(-c2ccc(Br)cc2)n1C1CCCCC1)N1CCCC1 | -28.7
COc1ccc(NC(=S)NCCN2CCC(C)CC2)cc1 | -46
Cc1cccn2c(=O)c(C=Nc3ccccc3)c(NCCO)nc12 | -9.1
O=C(NC1(O)C(=O)c2ccccc2C1=O)c1c(Cl)cccc1Cl | 17.3
CC(=O)O.Cc1nc2nc(CSc3nnc(C)s3)cc(=O)n2[nH]1 | 13.9
